{"source": "the supplement of paper PMC12217912", "parents": {"B1": {"name": "TEV protease; numbered along this chain (parent)", "chain": "MGESLFKGPRDYNPISSSICHLTNESDGHTTSLYGIGFGPFIITNKHLFRRNNGTLVVQSLHGVFKVKDTTTLQQHLVDGRDMIIIRMPKDFPPFPQKLKFREPQREERICLVTTNFQTKSMSSMVSDTSCTFPSGDGIFWKHWIQTKDGQCGSPLVSTRDGFIVGIHSASNFTNTNNYFTSVPKNFMELLTNQEAQQWVSGWRLNADSVLWGGHKVFMVKPEEPFQPVKEATQL"}}, "note": "Some of the results follow. Sequences were assembled here from the parent chain. Inactive controls read about 0.05.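 Note: Bxb1 expression induced with 0.2% (w/v) L-rhamnose at OD600 near 0.5, cultures sampled hourly, flipped fraction per protease–substrate barcode pair counted by paired-end Illumina sequencing.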", "data": [{"variants_of": "B1", "assay": "raw area under fraction-flipped curve 0-4 h after induction (AUC4h, not background-subtracted), DNA-recorder readout of cleavage of the substrate (dimensionless); higher = more cleavage of the substrate by the protease variant", "settings": "temperature: 34 °C; time window: 0-4 h after rhamnose induction", "values": [{"variant": "MGESLFKGPRDYNPISSSICHLTNESDGHTMSLYGIGFGPFIITNKHLFRRNNGTLVVQSLHGVFKVKDTTTLQQHLVDGRDMIIIRMPKDFPPFPQKLKFREPQREERICLVTTNFQTKSMSSMVSDTSCTFPSGDGIFWKHWIQTKDGQCGSPLVSTRDGFIVGIHSASNFTNTNNYFTSVPKNFMELLTNQEAQQWVSGWRLNADSVLWGGHKVFMVKPEEPFQPVKEATQL", "note": "[T31M]", "area with substrate HNLYFQS": 0.0689, "area with substrate INLYFQS": 0.0517, "area with substrate KNLYFQS": 0.0622, "area with substrate MNLYFQS": 0.0348, "area with substrate TNLYFQS": 0.0988, "area with substrate VNLYFQS": 0.077, "area with substrate WNLYFQS": 0.0615, "area with substrate YNLYFQS": 0.0794}, {"variant": "MGESLFKGPRDYNPISSSICHLTNESDGHTTSTYGIGFGPFIITNKHLFRRNNGTLVVQSLHGVFKVKDTTTLQQHLVDGRDMIIIRMPKDFPPFPQKLKFREPQREERICLVTTNFQTKSMSSMVSDTSCTFPSGDGIFWKHWIQTKDGQCGSPLVSTRDGFIVGIHSASNFTNTNNYFTSVPKNFMELLTNQEAQQWVSGWRLNADSVLWGGHKVFMVKPEEPFQPVKEATQL", "note": "[L33T]", "area with substrate HNLYFQS": 0.0523, "area with substrate KNLYFQS": 0.0688, "area with substrate LNLYFQS": 0.0803, "area with substrate NNLYFQS": 0.0629, "area with substrate SNLYFQS": 0.06, "area with substrate TNLYFQS": 0.0566}, {"variant": "MGESLFKGPRDYNPISSSICHLTNESDGHTTSLYGIGFGPFIITNKHLFSRNNGTLVVQSLHGVFKVKDTTTLQQHLVDGRDMIIIRMPKDFPPFPQKLKFREPQREERICLVTTNFQTKSMSSMVSDTSCTFPSGDGIFWKHWIQTKDGQCGSPLVSTRDGFIVGIHSASNFTNTNNYFTSVPKNFMELLTNQEAQQWVSGWRLNADSVLWGGHKVFMVKPEEPFQPVKEATQL", "note": "[R50S]", "area with substrate HNLYFQS": 0.0635, "area with substrate NNLYFQS": 0.0621, "area with substrate PNLYFQS": 0.057, "area with substrate WNLYFQS": 0.0558}, {"variant": "MGESLFKGPRDYNPISSSICHLTNESDGHTTSLYGIGFGPFIITNKHLFRRNNGTLVWQSLHGVFKVKDTTTLQQHLVDGRDMIIIRMPKDFPPFPQKLKFREPQREERICLVTTNFQTKSMSSMVSDTSCTFPSGDGIFWKHWIQTKDGQCGSPLVSTRDGFIVGIHSASNFTNTNNYFTSVPKNFMELLTNQEAQQWVSGWRLNADSVLWGGHKVFMVKPEEPFQPVKEATQL", "note": "[V58W]", "area with substrate HNLYFQS": 0.0496, "area with substrate MNLYFQS": 0.0345, "area with substrate TNLYFQS": 0.0206, "area with substrate YNLYFQS": 0.0487}, {"variant": "MGESLFKGPRDYNPISSSICHLTNESDGHTTSLYGIGFGPFIITNKHLFRRNNGTLVVQSLGGVFKVKDTTTLQQHLVDGRDMIIIRMPKDFPPFPQKLKFREPQREERICLVTTNFQTKSMSSMVSDTSCTFPSGDGIFWKHWIQTKDGQCGSPLVSTRDGFIVGIHSASNFTNTNNYFTSVPKNFMELLTNQEAQQWVSGWRLNADSVLWGGHKVFMVKPEEPFQPVKEATQL", "note": "[H62G]", "area with substrate HNLYFQS": 0.0843, "area with substrate LNLYFQS": 0.0776, "area with substrate MNLYFQS": 0.0642, "area with substrate PNLYFQS": 0.0755, "area with substrate SNLYFQS": 0.0582, "area with substrate TNLYFQS": 0.0593, "area with substrate WNLYFQS": 0.0604, "area with substrate YNLYFQS": 0.0469}, {"variant": "MGESLFKGPRDYNPISSSICHLTNESDGHTTSLYGIGFGPFIITNKHLFRRNNGTLVVQSLTGVFKVKDTTTLQQHLVDGRDMIIIRMPKDFPPFPQKLKFREPQREERICLVTTNFQTKSMSSMVSDTSCTFPSGDGIFWKHWIQTKDGQCGSPLVSTRDGFIVGIHSASNFTNTNNYFTSVPKNFMELLTNQEAQQWVSGWRLNADSVLWGGHKVFMVKPEEPFQPVKEATQL", "note": "[H62T]", "area with substrate HNLYFQS": 0.0613, "area with substrate INLYFQS": 0.0651, "area with substrate LNLYFQS": 0.0765, "area with substrate PNLYFQS": 0.0575, "area with substrate RNLYFQS": 0.0702, "area with substrate SNLYFQS": 0.0724, "area with substrate TNLYFQS": 0.0489, "area with substrate WNLYFQS": 0.05}, {"variant": "MGESLFKGPRDYNPISSSICHLTNESDGHTTSLYGIGFGPFIITNKHLFRRNNGTLVVQSLHGVFKEKDTTTLQQHLVDGRDMIIIRMPKDFPPFPQKLKFREPQREERICLVTTNFQTKSMSSMVSDTSCTFPSGDGIFWKHWIQTKDGQCGSPLVSTRDGFIVGIHSASNFTNTNNYFTSVPKNFMELLTNQEAQQWVSGWRLNADSVLWGGHKVFMVKPEEPFQPVKEATQL", "note": "[V67E]", "area with substrate HNLYFQS": 0.045, "area with substrate PNLYFQS": 0.0859, "area with substrate TNLYFQS": 0.0391}, {"variant": "MGESLFKGPRDYNPISSSICHLTNESDGHTTSLYGIGFGPFIITNKHLFRRNNGTLVVQSLHGVFKVKDCTTLQQHLVDGRDMIIIRMPKDFPPFPQKLKFREPQREERICLVTTNFQTKSMSSMVSDTSCTFPSGDGIFWKHWIQTKDGQCGSPLVSTRDGFIVGIHSASNFTNTNNYFTSVPKNFMELLTNQEAQQWVSGWRLNADSVLWGGHKVFMVKPEEPFQPVKEATQL", "note": "[T70C]", "area with substrate HNLYFQS": 0.0579, "area with substrate INLYFQS": 0.0633, "area with substrate MNLYFQS": 0.0588, "area with substrate NNLYFQS": 0.0614, "area with substrate QNLYFQS": 0.0409, "area with substrate TNLYFQS": 0.0581, "area with substrate VNLYFQS": 0.0535, "area with substrate WNLYFQS": 0.0481, "area with substrate YNLYFQS": 0.053}, {"variant": "MGESLFKGPRDYNPISSSICHLTNESDGHTTSLYGIGFGPFIITNKHLFRRNNGTLVVQSLHGVFKVKDTTTLQQHLVDGRDMKIIRMPKDFPPFPQKLKFREPQREERICLVTTNFQTKSMSSMVSDTSCTFPSGDGIFWKHWIQTKDGQCGSPLVSTRDGFIVGIHSASNFTNTNNYFTSVPKNFMELLTNQEAQQWVSGWRLNADSVLWGGHKVFMVKPEEPFQPVKEATQL", "note": "[I84K]", "area with substrate HNLYFQS": 0.0508, "area with substrate INLYFQS": 0.0584, "area with substrate LNLYFQS": 0.0414, "area with substrate MNLYFQS": 0.0595, "area with substrate NNLYFQS": 0.0602, "area with substrate PNLYFQS": 0.0625, "area with substrate SNLYFQS": 0.0522, "area with substrate TNLYFQS": 0.0576, "area with substrate WNLYFQS": 0.0427}, {"variant": "MGESLFKGPRDYNPISSSICHLTNESDGHTTSLYGIGFGPFIITNKHLFRRNNGTLVVQSLHGVFKVKDTTTLQQHLVDGRDMIIILMPKDFPPFPQKLKFREPQREERICLVTTNFQTKSMSSMVSDTSCTFPSGDGIFWKHWIQTKDGQCGSPLVSTRDGFIVGIHSASNFTNTNNYFTSVPKNFMELLTNQEAQQWVSGWRLNADSVLWGGHKVFMVKPEEPFQPVKEATQL", "note": "[R87L]", "area with substrate HNLYFQS": 0.0693, "area with substrate LNLYFQS": 0.0621, "area with substrate SNLYFQS": 0.0505, "area with substrate TNLYFQS": 0.0603, "area with substrate VNLYFQS": 0.0892, "area with substrate WNLYFQS": 0.0556, "area with substrate YNLYFQS": 0.057}, {"variant": "MGESLFKGPRDYNPISSSICHLTNESDGHTTSLYGIGFGPFIITNKHLFRRNNGTLVVQSLHGVFKVKDTTTLQQHLVDGRDMIIIRMPKDWPPFPQKLKFREPQREERICLVTTNFQTKSMSSMVSDTSCTFPSGDGIFWKHWIQTKDGQCGSPLVSTRDGFIVGIHSASNFTNTNNYFTSVPKNFMELLTNQEAQQWVSGWRLNADSVLWGGHKVFMVKPEEPFQPVKEATQL", "note": "[F92W]", "area with substrate HNLYFQS": 0.0621, "area with substrate INLYFQS": 0.106, "area with substrate KNLYFQS": 0.0633, "area with substrate PNLYFQS": 0.066, "area with substrate VNLYFQS": 0.0701}]}]}
